We go through 110 sequences from PMC10668032.

Some of the results follow. At the low end of the ranking, values are background and their order means little.

The target of this assay is SIX1-Q177R homeodomain (UniProt Q15475). In words: universal protein binding microarray. As to conditions: Universal all-10-mer PBM (8x60K, AMADID 030236), 300 nM GST-tagged protein, Alexa Fluor 488 anti-GST; buffer, salt, pH and temperature not stated; high values mean tight binding; most listed sequences are background and not binding sites; double strand, one strand shown.
For the sequence TATAATGA, the binding signal was -0.11 E-score.

In the case of CACACTCG, the binding signal amounted to 0.353 E-score.

GGTGGTTA: the binding signal was 0.103 E-score.

For the sequence CCCTCCAA, the binding signal is 0.0698 E-score.

Regarding AAGCTCCC, the binding signal is -0.0335 E-score.

As for CAACGCCA, the binding signal turned out to be 0.175 E-score.

Regarding ACACTCAA, the binding signal came out at 0.39 E-score.

As for ATTTTTCC, the binding signal is -0.134 E-score.

Consider GAGCTTGA, for which the binding signal was -0.177 E-score.

Turning to CCCGCCGG, the binding signal turned out to be 0.245 E-score.

For CACTTTGA, the binding signal was 0.0743 E-score.

Regarding ATAACTAT, the binding signal was -0.251 E-score.

Regarding TAAACTCA, the binding signal came out at 0.0284 E-score.

On to ACCGACCG, for which the binding signal is 0.00509 E-score.

On to TATAAACA, for which the binding signal turned out to be 0.169 E-score.

Consider AGTTTAGC, for which the binding signal is -0.128 E-score.

Turning to AGATGGCC, the binding signal was -0.0633 E-score.

On to CAGGTCTC, for which the binding signal was -0.132 E-score.

Consider GCACTTAC, for which the binding signal was determined as 0.113 E-score.

Take AACGGGCA: the binding signal was -0.0113 E-score.

In the case of CTGATAGA, the binding signal is -0.167 E-score.

CCAATACC: the binding signal is 0.0218 E-score.

ATGAATAA: the binding signal was -0.0713 E-score.

As for CTCGAGTC, the binding signal came to 0.0169 E-score.

On to ATGCAACA, for which the binding signal came to 0.139 E-score.

Regarding AGCGCTCA, the binding signal is -0.301 E-score.

Regarding AAAGTACA, the binding signal was -0.00211 E-score.

For CAGCTGGG, the binding signal was -0.00666 E-score.

For the sequence CTCTAAAC, the binding signal is -0.0553 E-score.

Consider GCGTCAAA, for which the binding signal is -0.00411 E-score.

In the case of CTCCATGC, the binding signal is 0.0261 E-score.

Regarding AGGCCTTC, the binding signal is -0.251 E-score.

Take AACTACCT: the binding signal was -0.051 E-score.

For the sequence ACCTACAC, the binding signal was 0.43 E-score.

ATATTTGC: the binding signal was -0.169 E-score.

Turning to AGACCCGC, the binding signal came out at 0.0588 E-score.

With ACCAATCA, the binding signal is -0.0578 E-score.

On to AAGACGAA, for which the binding signal is -0.262 E-score.

Turning to AAGGAACC, the binding signal came to 0.0483 E-score.

Consider CCCCCGAA, for which the binding signal amounted to 0.238 E-score.

Consider CCTACCGA, for which the binding signal was -0.0459 E-score.

Turning to AAATGCCA, the binding signal was -0.204 E-score.

In the case of AGCCGCAG, the binding signal was -0.203 E-score.

Turning to GAGGCAAA, the binding signal was -0.168 E-score.

On to AGTGTACA, for which the binding signal was determined as 0.418 E-score.

As to GACTGTTA, the binding signal was -0.104 E-score.

In the case of AACCGCGG, the binding signal was 0.138 E-score.

With CCCGAAGG, the binding signal was found to be 0.193 E-score.

Regarding GCATCCGC, the binding signal is -0.00277 E-score.

Regarding CGTGAACA, the binding signal came out at 0.159 E-score.

With ATGATCTA, the binding signal is -0.0256 E-score.

Take ATCCATTC: the binding signal was -0.189 E-score.

As to GATTCGAA, the binding signal is -0.191 E-score.

Consider AATGTCAT, for which the binding signal is -0.333 E-score.

As for ACGTAGTC, the binding signal was -0.0835 E-score.

On to ATTATTGC, for which the binding signal was -0.0119 E-score.

Turning to TCAACTAA, the binding signal was -0.183 E-score.

GCGGCTAC: the binding signal was found to be 0.0214 E-score.

Consider ACGACGAC, for which the binding signal was -0.171 E-score.

As to AGACAAGG, the binding signal worked out at 0.0303 E-score.

CCGGTCCA: the binding signal is -0.12 E-score.

Consider CTACCTTA, for which the binding signal stood at 0.148 E-score.

With CAGCGACC, the binding signal is 0.0907 E-score.

As for ACGGGGCA, the binding signal was 0.0112 E-score.

AGCTAACC: the binding signal was -0.01 E-score.

ATGGTGGG: the binding signal was determined as 0.0232 E-score.

For GCAAGCGC, the binding signal was -0.112 E-score.

As to CCAGCGGC, the binding signal is -0.237 E-score.

For GGACCTCA, the binding signal was -0.207 E-score.

On to GAAGAATC, for which the binding signal is -0.206 E-score.

As for CACTTGAG, the binding signal was 0.0805 E-score.

In the case of CAGAGTGA, the binding signal came to 0.0717 E-score.

Regarding CAGTTAAA, the binding signal is -0.273 E-score.

In the case of GCTCTCTA, the binding signal was -0.276 E-score.

Turning to AAATCTCT, the binding signal is -0.111 E-score.

As for CTGTAGAA, the binding signal is -0.0519 E-score.

Turning to ATACGGCC, the binding signal was -0.0407 E-score.

For the sequence GGCGTCGA, the binding signal was 0.0573 E-score.

For the sequence ATTATTGA, the binding signal is -0.115 E-score.

On to CTGGCTCA, for which the binding signal was -0.115 E-score.

For ATAATATG, the binding signal is -0.131 E-score.

On to GAGATCCA, for which the binding signal was -0.0274 E-score.

For AATGTCCC, the binding signal is -0.115 E-score.

As for GAGTGCGC, the binding signal worked out at 0.0118 E-score.

Consider GACATACA, for which the binding signal was 0.114 E-score.

Consider ATCTCTCA, for which the binding signal was 0.0317 E-score.

Turning to CGGCTATC, the binding signal is -0.14 E-score.

For the sequence CTATCAAA, the binding signal is -0.236 E-score.

With AGCAAAAC, the binding signal is -0.188 E-score.

Take ATGGAAGA: the binding signal was -0.102 E-score.

For the sequence ATTATTCA, the binding signal came out at 0.0631 E-score.

As for AGGTGGAT, the binding signal came out at 0.0507 E-score.

Take ACATCAAT: the binding signal was -0.186 E-score.

In the case of GTGGCCGA, the binding signal was -0.16 E-score.

Consider GTATAACA, for which the binding signal was found to be 0.228 E-score.

CCCGAATC: the binding signal is -0.00989 E-score.

With GAGGTACA, the binding signal came to 0.252 E-score.

For the sequence AAGTGACC, the binding signal was 0.151 E-score.

Regarding ACTATCAA, the binding signal came out at 0.0313 E-score.

AAAATACA: the binding signal is 0.121 E-score.

For AGCTAGGG, the binding signal amounted to 0.0311 E-score.

Consider ACAATGGA, for which the binding signal came out at 0.131 E-score.

As for ACCCACGC, the binding signal was 0.171 E-score.

Turning to CATGTTTC, the binding signal is -0.262 E-score.

ATACCTTC: the binding signal was determined as 0.146 E-score.

As for ACGGGGGA, the binding signal turned out to be 0.208 E-score.

For the sequence GCGCCGCA, the binding signal was determined as 0.109 E-score.

Take GATATCCA: the binding signal was -0.00568 E-score.

ACGAATAT: the binding signal was -0.183 E-score.

On to CACTGCCA, for which the binding signal was determined as 0.101 E-score.
